Hit rate of the full screen: of about 310,000 compounds, about 2,200 (0.71%) showed an effect of 50% or more. The effect is printed as a negative number. This is one part of the list.
biological target: human ether-à-go-go-related gene (hERG) potassium channel (human, UniProt Q12809); assay: primary screen, population patch clamp on CHO cells stably expressing hERG
Sequence (Q12809 whole entry, looked up): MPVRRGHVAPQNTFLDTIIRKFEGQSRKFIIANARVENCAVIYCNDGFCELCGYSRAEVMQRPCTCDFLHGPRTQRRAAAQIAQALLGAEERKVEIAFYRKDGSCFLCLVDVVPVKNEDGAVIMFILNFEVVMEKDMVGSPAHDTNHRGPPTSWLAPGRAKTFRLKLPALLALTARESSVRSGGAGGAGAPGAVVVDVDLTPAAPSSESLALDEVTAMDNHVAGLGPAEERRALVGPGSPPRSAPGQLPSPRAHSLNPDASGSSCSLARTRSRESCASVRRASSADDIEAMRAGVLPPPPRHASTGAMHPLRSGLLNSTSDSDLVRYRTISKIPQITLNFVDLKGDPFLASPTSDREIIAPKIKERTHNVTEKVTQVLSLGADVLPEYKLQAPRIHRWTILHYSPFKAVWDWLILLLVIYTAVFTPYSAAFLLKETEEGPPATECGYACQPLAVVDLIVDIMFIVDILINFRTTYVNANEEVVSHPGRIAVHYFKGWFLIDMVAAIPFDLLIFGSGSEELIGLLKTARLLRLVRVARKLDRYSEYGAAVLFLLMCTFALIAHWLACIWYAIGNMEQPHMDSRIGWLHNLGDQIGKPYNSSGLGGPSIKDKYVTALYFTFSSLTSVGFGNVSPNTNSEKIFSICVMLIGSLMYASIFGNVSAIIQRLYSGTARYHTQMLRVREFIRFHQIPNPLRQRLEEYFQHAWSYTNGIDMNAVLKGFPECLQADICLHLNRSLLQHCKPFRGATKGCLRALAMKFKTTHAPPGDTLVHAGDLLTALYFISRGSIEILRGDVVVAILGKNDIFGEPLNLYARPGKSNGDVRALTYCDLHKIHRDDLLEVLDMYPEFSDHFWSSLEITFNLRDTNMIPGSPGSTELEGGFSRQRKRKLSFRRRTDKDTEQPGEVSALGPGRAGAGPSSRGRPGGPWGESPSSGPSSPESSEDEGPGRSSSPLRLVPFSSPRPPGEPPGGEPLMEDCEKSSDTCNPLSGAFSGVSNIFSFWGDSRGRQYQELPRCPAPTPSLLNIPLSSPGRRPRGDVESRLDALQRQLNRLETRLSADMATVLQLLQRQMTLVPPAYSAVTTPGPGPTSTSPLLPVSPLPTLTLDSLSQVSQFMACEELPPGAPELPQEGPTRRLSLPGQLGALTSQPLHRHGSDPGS

SMILES	hERG current change (%, negative = inhibition) at 1uM [%]
O=C(CSc1nc(=O)n2cc(Cl)ccc2n1)Nc1ccc2c(c1)OCO2	17.3
O=C(COc1coc(CN2CCc3ccccc32)cc1=O)Nc1ccccc1	-3.5
c1ccc(Cn2c(CN3CCCC3)nc3ccccc32)cc1	-32.9
COc1cc(/C=N/NC(=O)c2cc(-c3cccn3C)n[nH]2)cc(OC)c1OC	-8.84
O=C(c1ccco1)N1CCN(c2ccc(Cl)c(Cl)c2)CC1	-0.211
Cc1ccc2oc(-c3cccc(NC(=S)NC(=O)/C=C/c4ccco4)c3)nc2c1	5.35
CC(C)Cn1c(N)c(C(=O)COC(=O)[C@H](C)NC(=O)c2ccccc2Cl)c(=O)n(C)c1=O	-8.18
O=C(c1cccnc1Nc1ccccc1F)N1CCOCC1	13
O=S(=O)(Nc1ncccn1)c1ccc(NC(=S)N2CCN(c3cccc(C(F)(F)F)c3)CC2)cc1	16
O=C(NCCCn1ccnc1)c1cc(-c2ccccc2)on1	7.48
CCCCN(C)C(=O)C1CCCN(S(=O)(=O)c2ccc3c(c2)oc(=O)n3C)C1 (stereo not drawn)	6.37
CCCSc1nnc(CSc2nc(C)cc(C)n2)n1C	-0.397
COc1cc2c(cc1OC)C1(Nc3c-2c(Cc2ccccc2)nn3-c2ccccc2)C(=O)Nc2ccccc21 (stereo not drawn)	12.4
Cc1ccc(S(=O)(=O)N2CCOCC2)cc1NC(=O)CN1CCN(c2ccc(O)cc2)CC1	1.62
Cc1cccc(/C=C2\CCC(=C3SCCCS3)C2=O)c1	3.23
O=C(c1coc2ccc(O)cc12)C1CC1	3.86
Cc1cc(NC(=O)C2C3C=CC(C3)C2C(=O)O)no1 (stereo not drawn)	4.11
COc1ccc(-c2csc(NC(=O)CC(C)C)n2)cc1	11.3
CC(C)(C)C(=O)O/N=C1/C(=O)N(c2ccccc2)c2ccccc21	20
Cc1ccccc1-n1cc(CNC(=O)C2CCC(=O)N(C3CC3)C2)cn1 (stereo not drawn)	18.5
O=C(NCc1ccc2c(c1)OCO2)C(=O)NCC1OCCN1S(=O)(=O)c1ccc(Br)cc1 (stereo not drawn)	-5.06
CC(NC(=O)/C(C#N)=C/c1ccc([N+](=O)[O-])o1)c1ccccc1 (stereo not drawn)	13.7
O=C1NCCc2c1[nH]c1ccc([N+](=O)[O-])cc21	-3.42
Cc1ccc(S(=O)(=O)N2CCN(c3ccccn3)CC2)cc1	10.8
